Laboratory results taken from paper PMC9886552.
Results are given in words; binding and its absence hold for the method and conditions named. Binding seen in cells or lysates may run through a third protein. Some results given as binding are weak or reduced against the parent protein; the word gives no strength. For part of these data: Where a sequence is shown, tags or fusion partners need not be part of it.

T1: C-terminally FLAG-tagged VLCAD (UniProt P49748)
T1 sequence: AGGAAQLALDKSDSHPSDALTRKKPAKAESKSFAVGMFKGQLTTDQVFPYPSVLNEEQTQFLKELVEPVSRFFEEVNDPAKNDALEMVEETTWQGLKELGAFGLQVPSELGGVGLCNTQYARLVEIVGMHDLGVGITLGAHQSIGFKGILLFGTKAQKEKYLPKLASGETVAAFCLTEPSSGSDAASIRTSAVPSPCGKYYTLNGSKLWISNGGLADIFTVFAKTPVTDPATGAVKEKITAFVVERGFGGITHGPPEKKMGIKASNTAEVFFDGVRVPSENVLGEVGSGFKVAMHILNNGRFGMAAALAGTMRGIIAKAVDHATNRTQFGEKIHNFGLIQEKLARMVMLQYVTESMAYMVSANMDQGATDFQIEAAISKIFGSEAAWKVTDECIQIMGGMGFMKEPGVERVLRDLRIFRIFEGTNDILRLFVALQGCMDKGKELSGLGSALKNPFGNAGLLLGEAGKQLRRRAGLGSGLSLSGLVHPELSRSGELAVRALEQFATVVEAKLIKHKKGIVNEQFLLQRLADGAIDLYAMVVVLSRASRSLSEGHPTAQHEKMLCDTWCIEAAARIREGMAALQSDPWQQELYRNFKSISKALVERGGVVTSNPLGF

T2: C-terminally FLAG-tagged MCEE (UniProt Q96PE7)
T2 sequence: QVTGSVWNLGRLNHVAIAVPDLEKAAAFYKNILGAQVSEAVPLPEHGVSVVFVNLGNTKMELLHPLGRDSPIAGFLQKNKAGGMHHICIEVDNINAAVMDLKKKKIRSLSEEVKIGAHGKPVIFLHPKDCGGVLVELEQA

T3: C-terminally FLAG-tagged methylmalonyl-CoA mutase (MMUT) (UniProt P22033)
T3 sequence: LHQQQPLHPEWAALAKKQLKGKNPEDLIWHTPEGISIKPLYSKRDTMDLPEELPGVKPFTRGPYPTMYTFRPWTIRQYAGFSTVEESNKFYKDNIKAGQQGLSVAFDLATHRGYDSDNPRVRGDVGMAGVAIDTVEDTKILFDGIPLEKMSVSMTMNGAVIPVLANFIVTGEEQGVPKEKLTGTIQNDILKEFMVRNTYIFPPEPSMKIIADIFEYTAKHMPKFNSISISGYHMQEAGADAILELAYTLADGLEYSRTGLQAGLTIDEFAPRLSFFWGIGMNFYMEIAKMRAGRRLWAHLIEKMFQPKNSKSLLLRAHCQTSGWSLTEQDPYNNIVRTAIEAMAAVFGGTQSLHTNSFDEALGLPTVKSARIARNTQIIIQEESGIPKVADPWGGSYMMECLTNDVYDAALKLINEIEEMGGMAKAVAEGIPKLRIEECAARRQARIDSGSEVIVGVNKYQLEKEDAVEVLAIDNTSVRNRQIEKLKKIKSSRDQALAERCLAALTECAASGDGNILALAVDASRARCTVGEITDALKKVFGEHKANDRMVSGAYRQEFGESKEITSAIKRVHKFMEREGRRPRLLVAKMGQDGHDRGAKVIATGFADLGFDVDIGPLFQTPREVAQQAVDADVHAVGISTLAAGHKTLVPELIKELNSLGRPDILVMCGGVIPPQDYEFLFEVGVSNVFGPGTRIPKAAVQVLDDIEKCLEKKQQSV

T4: C-terminally FLAG-tagged MMAB (UniProt Q96EY8)
T4 sequence: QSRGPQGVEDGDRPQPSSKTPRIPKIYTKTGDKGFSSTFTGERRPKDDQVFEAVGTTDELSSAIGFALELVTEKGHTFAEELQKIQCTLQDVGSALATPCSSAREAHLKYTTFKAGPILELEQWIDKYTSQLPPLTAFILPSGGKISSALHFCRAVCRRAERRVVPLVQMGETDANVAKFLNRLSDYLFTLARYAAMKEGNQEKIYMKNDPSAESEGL

T5: C-terminally FLAG-tagged ACO2 (UniProt Q99798)
T5 sequence: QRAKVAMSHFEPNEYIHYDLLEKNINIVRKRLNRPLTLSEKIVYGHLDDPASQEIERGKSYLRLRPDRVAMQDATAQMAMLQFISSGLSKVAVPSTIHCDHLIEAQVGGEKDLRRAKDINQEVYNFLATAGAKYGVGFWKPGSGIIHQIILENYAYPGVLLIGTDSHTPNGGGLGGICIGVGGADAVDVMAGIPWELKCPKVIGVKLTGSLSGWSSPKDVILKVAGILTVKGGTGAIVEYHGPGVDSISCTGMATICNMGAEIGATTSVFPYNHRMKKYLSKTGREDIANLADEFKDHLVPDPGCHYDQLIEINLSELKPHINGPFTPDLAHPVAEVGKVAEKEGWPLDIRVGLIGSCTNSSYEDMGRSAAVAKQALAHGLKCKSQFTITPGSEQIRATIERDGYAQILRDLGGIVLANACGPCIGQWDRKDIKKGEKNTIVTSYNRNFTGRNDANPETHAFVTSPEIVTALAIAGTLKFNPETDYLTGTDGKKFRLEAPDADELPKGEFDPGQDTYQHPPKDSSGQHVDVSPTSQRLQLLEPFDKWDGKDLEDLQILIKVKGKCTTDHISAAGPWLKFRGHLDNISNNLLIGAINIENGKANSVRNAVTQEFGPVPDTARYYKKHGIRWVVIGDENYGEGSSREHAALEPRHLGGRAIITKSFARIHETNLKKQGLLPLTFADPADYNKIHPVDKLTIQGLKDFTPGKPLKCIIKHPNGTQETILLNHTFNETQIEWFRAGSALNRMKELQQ

T6: C-terminally FLAG-tagged MMAA (UniProt Q8IVH4)
T6 sequence: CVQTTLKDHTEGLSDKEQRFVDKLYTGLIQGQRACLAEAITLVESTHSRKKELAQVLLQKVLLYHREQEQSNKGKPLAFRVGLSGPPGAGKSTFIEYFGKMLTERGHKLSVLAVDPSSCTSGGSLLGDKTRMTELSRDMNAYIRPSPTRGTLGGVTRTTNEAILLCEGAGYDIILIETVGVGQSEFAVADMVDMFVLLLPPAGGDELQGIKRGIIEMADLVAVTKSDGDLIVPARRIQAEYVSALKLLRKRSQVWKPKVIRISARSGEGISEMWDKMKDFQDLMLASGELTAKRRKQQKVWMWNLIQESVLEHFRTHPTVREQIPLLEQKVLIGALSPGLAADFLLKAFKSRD

T7: endogenous methylmalonyl-CoA mutase (MMUT) (human (endogenous in 293T)) (UniProt P22033)
T7 sequence: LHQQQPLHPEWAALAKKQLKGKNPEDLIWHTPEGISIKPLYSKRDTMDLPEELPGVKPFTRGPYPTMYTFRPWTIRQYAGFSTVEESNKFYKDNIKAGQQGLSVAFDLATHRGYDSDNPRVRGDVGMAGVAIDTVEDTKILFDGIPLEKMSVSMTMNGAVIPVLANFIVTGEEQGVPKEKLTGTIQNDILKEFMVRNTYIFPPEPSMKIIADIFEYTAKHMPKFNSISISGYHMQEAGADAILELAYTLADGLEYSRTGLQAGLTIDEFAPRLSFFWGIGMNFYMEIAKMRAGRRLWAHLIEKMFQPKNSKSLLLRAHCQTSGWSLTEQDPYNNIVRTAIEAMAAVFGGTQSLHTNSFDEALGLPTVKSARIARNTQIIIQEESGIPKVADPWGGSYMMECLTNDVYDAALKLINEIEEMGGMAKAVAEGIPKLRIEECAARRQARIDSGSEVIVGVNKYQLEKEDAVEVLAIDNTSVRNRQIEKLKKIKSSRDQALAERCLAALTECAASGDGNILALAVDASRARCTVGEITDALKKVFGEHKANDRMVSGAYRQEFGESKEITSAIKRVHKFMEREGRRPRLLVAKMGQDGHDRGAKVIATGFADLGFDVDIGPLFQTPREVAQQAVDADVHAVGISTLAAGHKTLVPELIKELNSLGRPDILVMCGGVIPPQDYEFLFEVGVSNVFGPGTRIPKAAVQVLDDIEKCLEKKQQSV


How the values were obtained:
[1] = target: T1, C-terminally FLAG-tagged VLCAD; assay: co-IP; cross-linking IP: transfected 293T cells crosslinked with 0.5% PFA in PBS 10 min RT, quenched with glycine, lysed in 1% Nonidet P-40, 0.5% deoxycholine, 150 mM NaCl, 50 mM Tris-HCl pH 7.5; IP with anti-FLAG M2 on Dynabeads Protein G; immunoblot (anti-MMUT, anti-MMAB, anti-DLST)
[2] = target: T2, C-terminally FLAG-tagged MCEE; assay: as above
[3] = target: T3, C-terminally FLAG-tagged methylmalonyl-CoA mutase (MMUT); assay: as above
[4] = target: T4, C-terminally FLAG-tagged MMAB; assay: as above
[5] = target: T5, C-terminally FLAG-tagged ACO2; assay: as above
[6] = target: T6, C-terminally FLAG-tagged MMAA; assay: as above
[7] = target: T7, endogenous methylmalonyl-CoA mutase (MMUT) (human (endogenous in 293T)); assay: co-IP; cross-linking IP of 293T cell extracts (0.5% PFA) with anti-MMUT or anti-MMAB on Dynabeads Protein G; immunoblot for endogenous MMAB and MMUT

binding [1]	binding [2]	binding [3]	binding [4]	binding [5]	binding [6]	binding [7]	Binder
no binding	binds	binds	binds	no binding	binds	binds	endogenous MMAB (protein, UniProt Q96EY8 33-250) QSRGPQGVEDGDRPQPSSKTPRIPKIYTKTGDKGFSSTFTGERRPKDDQVFEAVGTTDELSSAIGFALELVTEKGHTFAEELQKIQCTLQDVGSALATPCSSAREAHLKYTTFKAGPILELEQWIDKYTSQLPPLTAFILPSGGKISSALHFCRAVCRRAERRVVPLVQMGETDANVAKFLNRLSDYLFTLARYAAMKEGNQEKIYMKNDPSAESEGL
no binding	binds	binds	binds	no binding			endogenous methylmalonyl-CoA mutase (MMUT) (protein, UniProt P22033 33-750) LHQQQPLHPEWAALAKKQLKGKNPEDLIWHTPEGISIKPLYSKRDTMDLPEELPGVKPFTRGPYPTMYTFRPWTIRQYAGFSTVEESNKFYKDNIKAGQQGLSVAFDLATHRGYDSDNPRVRGDVGMAGVAIDTVEDTKILFDGIPLEKMSVSMTMNGAVIPVLANFIVTGEEQGVPKEKLTGTIQNDILKEFMVRNTYIFPPEPSMKIIADIFEYTAKHMPKFNSISISGYHMQEAGADAILELAYTLADGLEYSRTGLQAGLTIDEFAPRLSFFWGIGMNFYMEIAKMRAGRRLWAHLIEKMFQPKNSKSLLLRAHCQTSGWSLTEQDPYNNIVRTAIEAMAAVFGGTQSLHTNSFDEALGLPTVKSARIARNTQIIIQEESGIPKVADPWGGSYMMECLTNDVYDAALKLINEIEEMGGMAKAVAEGIPKLRIEECAARRQARIDSGSEVIVGVNKYQLEKEDAVEVLAIDNTSVRNRQIEKLKKIKSSRDQALAERCLAALTECAASGDGNILALAVDASRARCTVGEITDALKKVFGEHKANDRMVSGAYRQEFGESKEITSAIKRVHKFMEREGRRPRLLVAKMGQDGHDRGAKVIATGFADLGFDVDIGPLFQTPREVAQQAVDADVHAVGISTLAAGHKTLVPELIKELNSLGRPDILVMCGGVIPPQDYEFLFEVGVSNVFGPGTRIPKAAVQVLDDIEKCLEKKQQSV
